Laboratory results reported in PubChem BioAssay (NCI).
Values joined by “and” are separate entries in the source; they are usually repeats but may differ in a detail not shown here. Equal entries are not always repeated.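 Protocol summary: plate cells (96-well), add compound at 5 concentrations, incubate 48 h, interpolate endpoints linearly. Abbreviation: GI50, concentration required for 50% inhibition of growth. TGI: concentration producing complete growth inhibition.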

The molecules below were run on NCI-H322M lung (assay: growth of human tumour cells (NCI), 48 h).
`Cn1cc(-c2cc(N)n3nc(-c4c[nH]c5ccc(Cl)cc45)cc3n2)c2cc(Br)cnc21` showed a GI50 of 3.47 µM and a TGI of 22.8 µM. `Oc1ccc(Cl)c(Nc2ncnc3c2cnn3CC(Cl)c2ccc(Br)cc2)c1` (configuration not stated) was tested, and the GI50 was 16.3 µM and the TGI was 38.5 µM. `Clc1ccc(/C=N/Nc2ncnc3sc4c(c23)CCN(Cc2ccccc2)C4)cc1` was tested, and the GI50 was 22.9 µM and the TGI was over 100 µM. With `COc1cc2cc(C(=O)N3C[C@@H](CCl)c4c3cc(OC(=O)N(CCC(=O)N3CCN(C)CC3)[C@H]3CCSSC3)c3ccccc43)[nH]c2c(OC)c1OC` the GI50 was 0.211 µM and 0.235 µM and the TGI was 0.888 µM and 2.4 µM. Molecule `Cc1occc1C(=O)NN1C(=O)/C(=C/C=C/c2ccc([N+](=O)[O-])o2)SC1=S` has a GI50 of 14.3 µM and a TGI of 27.3 µM. `Fc1cccc(CNc2nc(SCCN3CCOCC3)nc3c2cnn3CC(Cl)c2ccc(Br)cc2)c1` (configuration not stated) showed a GI50 of over 100 µM and a TGI of over 100 µM.
